# The other results are listed elsewhere or left out.
# B1: SGC, Q9M345 (protein)
# chain: QNLNFTYNGFHPPLTDISLQGLATVTPNGLLKLTNTSVQKTGHAFCTERIRFKDSQNGNVSSFSTTFVFAIHSQIPTLSGHGIAFVVAPTLGLPFALPSQYIGLFNISNNGNDTNHIFAVEFDTIQSSEFGDPNDNHVGIDLNGLRSANYSTAGYRDDHDKFQNLSLISRKRIQVWIDYDNRSHRIDVTVAPFDSDKPRKPLVSYVRDLSSILLEDMYVGFSSATGSVLSEHFLVGWSFRLNGEAPMLSLSKLPKLPRFEPRRIS
# Legend:
# Experiment in all cases: glycan array binding signal (z-score within array); higher = stronger binding
# Conditions in all cases: glycan notation: IUPAC condensed, linker removed
# [1] = target: GlcNAc(b1-2)[GlcNAc(b1-4)]Man(a1-3)[GlcNAc(b1-4)][GlcNAc(b1-2)Man(a1-6)]Man(b1-4)GlcNAc(b1-4)GlcNAc
# Summary of the method: (§1)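 The Consortium for Functional Glycomics database supplied 3228 glycan arrays, of which those lacking an available protein sequence were dropped. The binding signal, a within-array Z-score, was averaged across arrays of the same protein sequence and across linkers. Negative scores can be read as non-binding.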
# [2] = target: GlcNAc(b1-2)[GlcNAc(b1-4)]Man(a1-3)[GlcNAc(b1-4)][GlcNAc(b1-2)[GlcNAc(b1-6)]Man(a1-6)]Man(b1-4)GlcNAc(b1-4)GlcNAc
# Summary of the method: as §1
# [3] = target: GlcNAc(b1-2)[GlcNAc(b1-4)]Man(a1-3)[GlcNAc(b1-4)][GlcNAc(b1-2)[GlcNAc(b1-6)]Man(a1-6)]Man(b1-4)GlcNAc(b1-4)[Fuc(a1-6)]GlcNAc
# Summary of the method: as §1
# [4] = target: GlcNAc(b1-2)[GlcNAc(b1-6)]Man(a1-6)[GlcNAc(b1-2)Man(a1-3)]Man(b1-4)GlcNAc(b1-4)GlcNAc
# Summary of the method: as §1
# [5] = target: GlcNAc(b1-2)[GlcNAc(b1-6)]Man(a1-6)[GlcNAc(b1-2)Man(a1-3)]Man(b1-4)GlcNAc(b1-4)[Fuc(a1-6)]GlcNAc
# Summary of the method: as §1
# [6] = target: GlcNAc(b1-2)[GlcNAc(b1-6)]Man(a1-6)[GlcNAc(b1-4)][GlcNAc(b1-2)Man(a1-3)]Man(b1-4)GlcNAc(b1-4)GlcNAc
# Summary of the method: as §1
# GlcNAc(b1-3)Fuc = target: GlcNAc(b1-3)Fuc
# Summary of the method: as §1
# GlcNAc(b1-3)Gal = target: GlcNAc(b1-3)Gal
# Summary of the method: as §1
# [7] = target: GlcNAc(b1-3)Gal(b1-3)GalNAc
# Summary of the method: as §1
# GlcNAc(b1-3)Gal(b1-4)Glc = target: GlcNAc(b1-3)Gal(b1-4)Glc
# Summary of the method: as §1
# [8] = target: GlcNAc(b1-3)Gal(b1-4)GlcNAc
# Summary of the method: as §1
# [9] = target: GlcNAc(b1-3)Gal(b1-4)GlcNAc(b1-2)Man(a1-3)[GlcNAc(b1-3)Gal(b1-4)GlcNAc(b1-2)Man(a1-6)]Man(b1-4)GlcNAc(b1-4)GlcNAc
# Summary of the method: as §1
# [10] = target: GlcNAc(b1-3)Gal(b1-4)GlcNAc(b1-2)Man(a1-3)[GlcNAc(b1-3)Gal(b1-4)GlcNAc(b1-2)Man(a1-6)]Man(b1-4)GlcNAc(b1-4)[Fuc(a1-6)]GlcNAc
# Summary of the method: as §1
# [11] = target: GlcNAc(b1-3)Gal(b1-4)GlcNAc(b1-2)[GlcNAc(b1-3)Gal(b1-4)GlcNAc(b1-6)]Man(a1-6)[GlcNAc(b1-3)Gal(b1-4)GlcNAc(b1-2)Man(a1-3)]Man(b1-4)GlcNAc(b1-4)GlcNAc
# Summary of the method: as §1
# [12] = target: GlcNAc(b1-3)Gal(b1-4)GlcNAc(b1-3)Gal(b1-4)GlcNAc
# Summary of the method: as §1
# [13] = target: GlcNAc(b1-3)Gal(b1-4)GlcNAc(b1-3)Gal(b1-4)GlcNAc(b1-2)Man(a1-3)[GlcNAc(b1-3)Gal(b1-4)GlcNAc(b1-3)Gal(b1-4)GlcNAc(b1-2)Man(a1-6)]Man(b1-4)GlcNAc(b1-4)GlcNAc
# Summary of the method: as §1
# [14] = target: GlcNAc(b1-3)Gal(b1-4)GlcNAc(b1-3)Gal(b1-4)GlcNAc(b1-2)Man(a1-3)[GlcNAc(b1-3)Gal(b1-4)GlcNAc(b1-3)Gal(b1-4)GlcNAc(b1-2)Man(a1-6)]Man(b1-4)GlcNAc(b1-4)[Fuc(a1-6)]GlcNAc
# Summary of the method: as §1
# [15] = target: GlcNAc(b1-3)Gal(b1-4)GlcNAc(b1-3)Gal(b1-4)GlcNAc(b1-2)[GlcNAc(b1-3)Gal(b1-4)GlcNAc(b1-3)Gal(b1-4)GlcNAc(b1-6)]Man(a1-6)[GlcNAc(b1-3)Gal(b1-4)GlcNAc(b1-3)Gal(b1-4)GlcNAc(b1-2)Man(a1-3)]Man(b1-4)GlcNAc(b1-4)[Fuc(a1-6)]GlcNAc
# Summary of the method: as §1
# [16] = target: GlcNAc(b1-3)Gal(b1-4)GlcNAc(b1-3)Gal(b1-4)GlcNAc(b1-3)Gal(b1-4)GlcNAc(b1-2)Man(a1-3)[GlcNAc(b1-3)Gal(b1-4)GlcNAc(b1-3)Gal(b1-4)GlcNAc(b1-3)Gal(b1-4)GlcNAc(b1-2)Man(a1-6)]Man(b1-4)GlcNAc(b1-4)GlcNAc
# Summary of the method: as §1
# [17] = target: GlcNAc(b1-3)Gal(b1-4)GlcNAc(b1-3)Gal(b1-4)GlcNAc(b1-3)Gal(b1-4)GlcNAc(b1-2)Man(a1-3)[GlcNAc(b1-3)Gal(b1-4)GlcNAc(b1-3)Gal(b1-4)GlcNAc(b1-3)Gal(b1-4)GlcNAc(b1-2)Man(a1-6)]Man(b1-4)GlcNAc(b1-4)[Fuc(a1-6)]GlcNAc
# Summary of the method: as §1
# [18] = target: GlcNAc(b1-3)Gal(b1-4)GlcNAc(b1-3)Gal(b1-4)GlcNAc(b1-3)Gal(b1-4)GlcNAc(b1-2)[GlcNAc(b1-3)Gal(b1-4)GlcNAc(b1-3)Gal(b1-4)GlcNAc(b1-3)Gal(b1-4)GlcNAc(b1-6)]Man(a1-6)[GlcNAc(b1-3)Gal(b1-4)GlcNAc(b1-3)Gal(b1-4)GlcNAc(b1-3)Gal(b1-4)GlcNAc(b1-2)Man(a1-3)]Man(b1-4)GlcNAc(b1-4)[Fuc(a1-6)]GlcNAc
# Summary of the method: as §1
# [19] = target: GlcNAc(b1-3)Gal(b1-4)GlcNAc(b1-3)Gal(b1-4)GlcNAc(b1-3)Gal(b1-4)GlcNAc(b1-3)Gal(b1-4)GlcNAc(b1-2)Man(a1-3)[GlcNAc(b1-3)Gal(b1-4)GlcNAc(b1-3)Gal(b1-4)GlcNAc(b1-3)Gal(b1-4)GlcNAc(b1-3)Gal(b1-4)GlcNAc(b1-2)Man(a1-6)]Man(b1-4)GlcNAc(b1-4)GlcNAc
# Summary of the method: as §1
# [20] = target: GlcNAc(b1-3)Gal(b1-4)GlcNAc(b1-3)Gal(b1-4)GlcNAc(b1-3)Gal(b1-4)GlcNAc(b1-3)Gal(b1-4)GlcNAc(b1-2)Man(a1-3)[GlcNAc(b1-3)Gal(b1-4)GlcNAc(b1-3)Gal(b1-4)GlcNAc(b1-3)Gal(b1-4)GlcNAc(b1-3)Gal(b1-4)GlcNAc(b1-2)Man(a1-6)]Man(b1-4)GlcNAc(b1-4)[Fuc(a1-6)]GlcNAc
# Summary of the method: as §1
# [21] = target: GlcNAc(b1-3)Gal(b1-4)GlcNAc(b1-3)Gal(b1-4)GlcNAc(b1-3)Gal(b1-4)GlcNAc(b1-3)Gal(b1-4)GlcNAc(b1-2)[GlcNAc(b1-3)Gal(b1-4)GlcNAc(b1-3)Gal(b1-4)GlcNAc(b1-3)Gal(b1-4)GlcNAc(b1-3)Gal(b1-4)GlcNAc(b1-6)]Man(a1-6)[GlcNAc(b1-3)Gal(b1-4)GlcNAc(b1-3)Gal(b1-4)GlcNAc(b1-3)Gal(b1-4)GlcNAc(b1-3)Gal(b1-4)GlcNAc(b1-2)Man(a1-3)]Man(b1-4)GlcNAc(b1-4)[Fuc(a1-6)]GlcNAc
# Summary of the method: as §1
# [22] = target: GlcNAc(b1-3)Gal(b1-4)GlcNAc(b1-3)Gal(b1-4)GlcNAc(b1-3)GalNAc
# Summary of the method: as §1
# [23] = target: GlcNAc(b1-3)Gal(b1-4)GlcNAc(b1-3)GalNAc
# Summary of the method: as §1
# [24] = target: GlcNAc(b1-3)Gal(b1-4)GlcNAc(b1-3)[GlcNAc(b1-3)Gal(b1-4)GlcNAc(b1-3)]GalNAc
# Summary of the method: as §1
# [25] = target: GlcNAc(b1-3)Gal(b1-4)GlcNAc(b1-6)[Gal(b1-3)]GalNAc
# Summary of the method: as §1
# [26] = target: GlcNAc(b1-3)Gal(b1-4)GlcNAc(b1-6)[GlcNAc(b1-3)Gal(b1-3)]GalNAc
# Summary of the method: as §1
# [27] = target: GlcNAc(b1-3)Gal(b1-4)GlcNAc(b1-6)[GlcNAc(b1-3)]Gal(b1-4)GlcNAc
# Summary of the method: as §1
# GlcNAc(b1-3)GalNAc = target: GlcNAc(b1-3)GalNAc
# Summary of the method: as §1
# GlcNAc(b1-3)Man = target: GlcNAc(b1-3)Man
# Summary of the method: as §1
# [28] = target: GlcNAc(b1-3)[GlcNAc(b1-4)][GlcNAc(b1-6)]GlcNAc
# Summary of the method: as §1
# [29] = target: GlcNAc(b1-3)[GlcNAc(b1-6)]Gal(b1-4)GlcNAc
# Summary of the method: as §1
# [30] = target: GlcNAc(b1-3)[GlcNAc(b1-6)]GalNAc
# Summary of the method: as §1
# [31] = target: GlcNAc(b1-4)Gal(b1-4)GlcNAc
# Summary of the method: as §1
# GlcNAc(b1-4)GlcNAc = target: GlcNAc(b1-4)GlcNAc
# Summary of the method: as §1
# [32] = target: GlcNAc(b1-4)GlcNAc(b1-4)GlcNAc
# Summary of the method: as §1
binder,measurement,setting,value
B1,glycan array binding signal (z-score),[1],-0.354
same,glycan array binding signal (z-score),[2],-0.356
same,glycan array binding signal (z-score),[3],-0.381
same,glycan array binding signal (z-score),[4],-0.353
same,glycan array binding signal (z-score),[5],-0.375
same,glycan array binding signal (z-score),[6],-0.322
same,glycan array binding signal (z-score),GlcNAc(b1-3)Fuc,-0.337
same,glycan array binding signal (z-score),GlcNAc(b1-3)Gal,-0.392
same,glycan array binding signal (z-score),[7],-0.357
same,glycan array binding signal (z-score),GlcNAc(b1-3)Gal(b1-4)Glc,-0.404
same,glycan array binding signal (z-score),[8],-0.367
same,glycan array binding signal (z-score),[9],-0.412
same,glycan array binding signal (z-score),[10],-0.26
same,glycan array binding signal (z-score),[11],0.835
same,glycan array binding signal (z-score),[12],-0.38
same,glycan array binding signal (z-score),[13],-0.292
same,glycan array binding signal (z-score),[14],-0.198
same,glycan array binding signal (z-score),[15],-0.236
same,glycan array binding signal (z-score),[16],-0.396
same,glycan array binding signal (z-score),[17],-0.265
same,glycan array binding signal (z-score),[18],-0.294
same,glycan array binding signal (z-score),[19],-0.325
same,glycan array binding signal (z-score),[20],-0.308
same,glycan array binding signal (z-score),[21],-0.162
same,glycan array binding signal (z-score),[22],-0.364
same,glycan array binding signal (z-score),[23],-0.322
same,glycan array binding signal (z-score),[24],-0.353
same,glycan array binding signal (z-score),[25],-0.31
same,glycan array binding signal (z-score),[26],-0.355
same,glycan array binding signal (z-score),[27],-0.358
same,glycan array binding signal (z-score),GlcNAc(b1-3)GalNAc,-0.395
same,glycan array binding signal (z-score),GlcNAc(b1-3)Man,-0.422
same,glycan array binding signal (z-score),[28],-0.336
same,glycan array binding signal (z-score),[29],-0.352
same,glycan array binding signal (z-score),[30],-0.342
same,glycan array binding signal (z-score),[31],-0.349
same,glycan array binding signal (z-score),GlcNAc(b1-4)GlcNAc,-0.333
same,glycan array binding signal (z-score),[32],-0.354

# Reference: the supplement of paper PMC8728848
